Test results taken from paper PMC4336329 (PLoS ONE, 2015).
In all, about 310,000 compounds went through this assay and about 2,200 (0.71%) showed an effect of 50% or more. The effect is printed as a negative number. This is one part of the list.

target: human ether-à-go-go-related gene (hERG) potassium channel (human, UniProt Q12809); test: primary screen, population patch clamp on CHO cells stably expressing hERG
Sequence (Q12809 whole entry, looked up): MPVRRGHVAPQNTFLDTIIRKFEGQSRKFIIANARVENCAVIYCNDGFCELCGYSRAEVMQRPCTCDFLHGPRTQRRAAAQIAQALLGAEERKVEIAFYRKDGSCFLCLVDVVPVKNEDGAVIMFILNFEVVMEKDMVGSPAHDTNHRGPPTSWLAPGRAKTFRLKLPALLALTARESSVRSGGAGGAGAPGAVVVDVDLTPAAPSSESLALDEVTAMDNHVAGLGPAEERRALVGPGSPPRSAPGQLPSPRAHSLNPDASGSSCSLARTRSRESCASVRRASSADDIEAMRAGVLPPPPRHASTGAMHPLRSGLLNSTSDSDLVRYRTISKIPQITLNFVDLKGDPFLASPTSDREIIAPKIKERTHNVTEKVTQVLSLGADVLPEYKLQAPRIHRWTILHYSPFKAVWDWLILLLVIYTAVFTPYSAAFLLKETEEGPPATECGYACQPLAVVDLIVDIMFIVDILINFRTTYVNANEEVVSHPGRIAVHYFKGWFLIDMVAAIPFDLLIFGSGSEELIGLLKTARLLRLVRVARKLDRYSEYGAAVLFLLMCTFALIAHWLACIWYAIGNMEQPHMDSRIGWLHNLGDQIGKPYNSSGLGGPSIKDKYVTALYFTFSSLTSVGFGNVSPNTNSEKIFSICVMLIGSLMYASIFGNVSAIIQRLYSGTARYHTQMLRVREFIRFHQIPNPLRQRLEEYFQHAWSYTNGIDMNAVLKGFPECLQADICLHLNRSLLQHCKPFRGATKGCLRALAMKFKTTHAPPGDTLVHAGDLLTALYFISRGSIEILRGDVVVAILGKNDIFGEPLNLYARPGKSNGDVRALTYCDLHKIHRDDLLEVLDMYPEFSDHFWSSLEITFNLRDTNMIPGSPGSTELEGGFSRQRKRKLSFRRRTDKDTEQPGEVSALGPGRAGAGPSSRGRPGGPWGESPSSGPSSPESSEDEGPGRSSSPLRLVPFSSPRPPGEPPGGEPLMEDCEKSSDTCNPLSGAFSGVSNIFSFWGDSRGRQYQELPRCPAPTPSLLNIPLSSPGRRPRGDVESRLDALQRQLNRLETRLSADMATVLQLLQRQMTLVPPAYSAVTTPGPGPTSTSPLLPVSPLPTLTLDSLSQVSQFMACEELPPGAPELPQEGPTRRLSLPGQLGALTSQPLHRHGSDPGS

SMILES	hERG current change (%, negative = inhibition) at 1uM
COC(=O)C(NS(=O)(=O)c1ccc(N2CCCC2=O)cc1)c1ccccc1 (stereo not drawn)	10.4%
O=C(C(Cc1ccccc1)n1cccc1)N1CCCCC1 (stereo not drawn)	7.29%
CCOC(=O)N1CCN(C(=O)COC(=O)CSc2cc(C)c(Br)cc2C)CC1	-3.54%
O=C(NCC1CCCO1)/C(=C/c1ccccc1)NC(=O)c1ccccc1 (stereo not drawn)	7.74%
Cc1c(OC(C)C(=O)NCCCN2CCOCC2)ccc2c3c(c(=O)oc12)CCCC3 (stereo not drawn)	1.32%
COc1ccc(N2CCN(C(=O)CCCSc3nc4ccccc4[nH]3)CC2)cc1	-29.6%
CNC(=O)c1cc(C(=O)c2ccccc2Br)c[nH]1	12.2%
CCOC(=O)c1c(C)[nH]c(C(=O)Cn2c(=O)c3c(ncn3CC)n(Cc3ccccc3)c2=O)c1C	1.3%
Cc1ccsc1/C=N/NC(=O)c1nnn(-c2nonc2N)c1-c1ccccc1	13.5%
COc1ccc(C(=O)NC(Cc2ccccc2)c2ccc3c(c2)OCCCO3)cc1 (stereo not drawn)	3.96%
Cc1cnc(C(=O)OCC(=O)c2ccc(C)s2)cn1	6.59%
Cc1c(NC(=O)Nc2cccc(C#N)c2)c(=O)n(-c2ccccc2)n1C	9.66%
CCCn1c(SCC(=O)N2N=C3/C(=C/c4ccc(OC)cc4)CCCC3C2c2ccc(OC)cc2)n[nH]c1=O (stereo not drawn)	18%
CCOC(=O)C(C)Oc1ccc(NC(=O)C(Cl)(Cl)Cl)cc1 (stereo not drawn)	2.49%
CCOC(=O)Cn1nc(C)cc1NC(=O)c1ccncc1	5.9%
C=CCn1cnc2c(nnn2-c2ccc(C)c(Cl)c2)c1=O	9.97%
C#CCN1C(=O)S/C(=C\c2cc3c(cc2OC)OCO3)C1=O	3.03%
Fc1ccccc1Sc1ccccc1CNC1=NCCN1.I	14.6%
COC(=O)C1(Cc2cc(-c3ccc(Cl)cc3)no2)CCN(C(=O)OC(C)(C)C)CC1	-4.66%

SMILES	hERG current change (%, negative = inhibition) at 1uM
O=CN1CCN(S(=O)(=O)c2ccc(Cl)c(C(=O)O)c2)CC1	4.64%
O=C(Nc1ccccc1)OCc1cn(-c2ccc(Cl)cc2)nn1	11.8%
C=C(C)c1cccc(C(C)(C)NC(=O)N2CCN(c3ccc(OC)cc3)CC2)c1	11%
O=c1cc(CSc2ccc([N+](=O)[O-])cc2)nc2sccn12	-1.12%
O=C(c1ccccc1)c1nn(-c2ccccc2)c2nnc(Cc3ccccc3)c(=O)n12	4.97%
COCCNC(=S)N(CCc1c(C)[nH]c2ccccc12)Cc1ccco1	5.58%
CC(C)NS(=O)(=O)c1ccc(NC(=O)C(C)OC(=O)CCC(=O)c2cccs2)cc1 (stereo not drawn)	12.6%
CCOC(=O)Nc1cc(C(=O)OC)cc(C(=O)OC)c1	9.12%
CC(CS(=O)(=O)c1ccc2c(c1)NC(=O)CS2)C(=O)N1CCN(c2cccc(Cl)c2)CC1 (stereo not drawn)	-2.97%
COC(=O)Cn1c(Cc2ccccc2)nc2ccccc21	3.36%
OC1(c2nc3ccccc3[nH]2)CCCCC1	10.5%
Cc1ccc(S(=O)(=O)NCCN2CCN(S(=O)(=O)c3ccccc3Cl)CC2)cc1	5.88%
CCC(C)NS(=O)(=O)c1ccc(OCC(=O)NCc2ccc3c(c2)OCO3)cc1 (stereo not drawn)	10.4%
O=C(O)c1ccccc1C(=O)NNc1ccc(Cl)cc1	13.2%
N#C/C(=C\c1c(N2CCC(C(N)=O)CC2)nc2ccccn2c1=O)C(=O)NCc1ccco1	-10.1%
O=C(NCC(=O)N1CCCCCCC1)c1ccc(Br)o1	4.93%
CC1CCN(CC(C)OC(=O)c2ccco2)CC1.Cl (stereo not drawn)	11.3%
Fc1ccc(-n2c(-c3ccco3)nc3nc4ccccc4nc32)cc1	-2.19%
CCOc1ccc(NC(=O)CC2C(=O)N(c3ccccc3)C(=O)N2Cc2ccco2)cc1 (stereo not drawn)	2.9%

SMILES	hERG current change (%, negative = inhibition) at 1uM
Cc1ccc2[nH]c(O)c(N=NC(N)=S)c2c1	8.68%
CCOC(=O)C1(C)NC(c2ccccc2F)C2C(=O)N(c3cccc(C(C)=O)c3)C(=O)C21 (stereo not drawn)	15.4%
CC(=O)Cc1nsc(NC(=O)c2cc(-c3cccc(C(F)(F)F)c3)oc2C)n1	9.34%
CCn1c(=O)c2cc(C(=O)NCCOC)sc2c2ccccc21	10.9%
COC(=O)c1[nH]c2c(c1C)C(=O)CC(c1ccc(OC)c(OC)c1)C2 (stereo not drawn)	8.15%
COc1cccc(CNc2nc3nc4c(c(=O)n3[nH]2)CCC4)c1	0.788%
COc1ccc(C(C)(C)NC(=O)C2CCC(=O)N(C3CCCC3)C2)cc1OC (stereo not drawn)	8.43%
COC(=O)CNC(=O)c1ccccc1C	12.3%
CSCCC(NC(=O)c1ccco1)C(=O)OC(C)C(=O)NC(=O)NC1CCCCC1 (stereo not drawn)	10.4%
COCCCNC(=S)NC(=O)c1ccccc1	18.6%
COc1ccc(NC(=O)c2ocnc2C)cc1OC	18.5%
O=C1CN(C(=O)COc2ncnc3ccccc23)c2ccccc2N1	1.16%
CCOc1ccc(C(=O)Nc2cc(S(=O)(=O)Nc3ccccc3Cl)ccc2N2CCOCC2)cc1	10.4%
NC(=O)c1ccc(C(F)(F)F)n(Cc2ccccc2Cl)c1=O	12.9%
O=C(CCc1nnc(Cc2ccc3c(c2)OCO3)o1)NC(c1ccccn1)C(F)(F)F (stereo not drawn)	15.5%
O=C(Cn1c(=O)[nH]c2ccccc2c1=O)Nc1cccnc1	13.7%
Cc1ccc(OCC(=O)Nc2ccc3c(c2)OCO3)cc1C	-1.57%
CC(=O)Oc1ccc(C(=O)Nc2cccc(NC(=O)c3ccco3)c2)cc1	8.02%
CCn1c(SCC(=O)NCCOc2ccccc2)nc2ccccc2c1=O	10.3%
